The target in test [1] is T1, full-length human GYS1 with N-terminal His6-tag (FastBac-Dual construct) (human) (UniProt P13807).
T1 sequence (chain, heterogeneous phosphorylation (denaturing mass spectrometry)): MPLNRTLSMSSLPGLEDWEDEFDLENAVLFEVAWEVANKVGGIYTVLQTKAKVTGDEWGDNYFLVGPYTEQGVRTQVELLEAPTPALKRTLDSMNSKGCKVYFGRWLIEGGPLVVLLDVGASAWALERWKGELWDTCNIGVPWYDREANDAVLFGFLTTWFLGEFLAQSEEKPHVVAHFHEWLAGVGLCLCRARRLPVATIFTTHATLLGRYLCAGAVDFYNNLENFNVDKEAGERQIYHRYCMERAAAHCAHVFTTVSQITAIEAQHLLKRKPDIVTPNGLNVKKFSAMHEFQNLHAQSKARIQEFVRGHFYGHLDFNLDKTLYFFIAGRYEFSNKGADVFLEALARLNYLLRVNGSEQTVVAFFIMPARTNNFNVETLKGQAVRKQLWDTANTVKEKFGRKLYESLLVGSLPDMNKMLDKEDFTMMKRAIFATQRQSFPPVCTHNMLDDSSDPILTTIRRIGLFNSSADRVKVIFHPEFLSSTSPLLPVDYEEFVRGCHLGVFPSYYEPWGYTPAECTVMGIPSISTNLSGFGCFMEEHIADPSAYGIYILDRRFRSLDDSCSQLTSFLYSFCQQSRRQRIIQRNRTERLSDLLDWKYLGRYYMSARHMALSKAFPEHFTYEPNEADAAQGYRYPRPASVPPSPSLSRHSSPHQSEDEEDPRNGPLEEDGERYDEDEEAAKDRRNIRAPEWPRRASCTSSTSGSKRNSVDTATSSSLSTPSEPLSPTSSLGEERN
Put plainly: co-purification (Ni-Sepharose affinity and size-exclusion chromatography); GYS1 (N-terminal His6) and GYG1 coexpressed in Sf9 cells; lysis buffer 50 mM sodium phosphate pH 7.5, 500 mM NaCl, 5% glycerol, 0.5 mM TCEP, 10 mM imidazole; Ni-Sepharose, Superose 6; SDS-PAGE. A general note: SEC sorts molecules by how far they enter the pores of the column.

In test [2] the target is T2, human PTG (PPP1R3C) aa 134–259, CBM21 domain construct, His-tagged (human) (UniProt Q9UQK1).
T2 sequence: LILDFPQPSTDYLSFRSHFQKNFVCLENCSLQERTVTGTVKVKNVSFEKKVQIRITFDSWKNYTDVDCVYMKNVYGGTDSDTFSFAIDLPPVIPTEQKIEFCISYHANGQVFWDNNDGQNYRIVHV
The test is described as follows: condition: 0.25 mg ml^-1 complex with 1.0 mg ml^-1 His-PPP1R3C; pull-down; His-PPP1R3C (1.0 mg ml^-1) preincubated with GYS1–GYG1 complex (0.25 mg ml^-1) or GYG1 (0.5 mg ml^-1) for 30 min at 4 °C, captured on Talon resin in 25 mM HEPES pH 7.5, 100 mM NaCl, 1 mM TCEP, 0.2% Tween-20; wash with 10 mM imidazole; SDS-PAGE, Coomassie; both purified.

For test [3], the target named is T2, human PTG (PPP1R3C) aa 134–259, CBM21 domain construct, His-tagged (human). Put plainly: native gel or EMSA; Blue-Native PAGE; His-PPP1R3C, GYS1–GYG1 complex and/or GYG1 in 25 mM HEPES pH 7.5, 200 mM NaCl, 1.0 mM TCEP, preincubated 5 min at room temperature; both purified. (A gel shift assay detects complexes by their altered migration in electrophoresis.)

Results are given in words; binding and its absence hold for the method and conditions named. Some entries that bind do so weakly or less than the wild type. Sequences can lack the tags named with a protein.

B1: full-length human GYG1 (GYG1^FL), glucosylated (enzyme, UniProt P46976-1 1-350)
chain: MTDQAFVTLTTNDAYAKGALVLGSSLKQHRTTRRLVVLATPQVSDSMRKVLETVFDEVIMVDVLDSGDSAHLTLMKRPELGVTLTKLHCWSLTQYSKCVFMDADTLVLANIDDLFDREELSAAPDPGWPDCFNSGVFVYQPSVETYNQLLHLASEQGSFDGGDQGILNTFFSSWATTDIRKHLPFIYNLSSISIYSYLPAFKVFGASAKVVHFLGRVKPWNYTYDPKTKSVKSEAHDPNMTHPEFLILWWNIFTTNVLPLLQQFGLVKDTCSYVNVLSDLVYTLAFSCGFCRKEDVSGAISHLSLGEIPAMAQPFVSSEERKERWEQGQADYMGADSFDNIKRKLDTYLQ
modifications: heterogeneous glucosylation (glucose chain attached to GYG1)
With B1, in test [1], the binding result is recorded as “binds”.

B2: GYS1–GYG1^p.Y195F complex (full-length human GYS1 with full-length nonglucosylated GYG1 Y195F) (complex, UniProt P13807 1-737; P46976-1 1-350)
chain 1: MPLNRTLSMSSLPGLEDWEDEFDLENAVLFEVAWEVANKVGGIYTVLQTKAKVTGDEWGDNYFLVGPYTEQGVRTQVELLEAPTPALKRTLDSMNSKGCKVYFGRWLIEGGPLVVLLDVGASAWALERWKGELWDTCNIGVPWYDREANDAVLFGFLTTWFLGEFLAQSEEKPHVVAHFHEWLAGVGLCLCRARRLPVATIFTTHATLLGRYLCAGAVDFYNNLENFNVDKEAGERQIYHRYCMERAAAHCAHVFTTVSQITAIEAQHLLKRKPDIVTPNGLNVKKFSAMHEFQNLHAQSKARIQEFVRGHFYGHLDFNLDKTLYFFIAGRYEFSNKGADVFLEALARLNYLLRVNGSEQTVVAFFIMPARTNNFNVETLKGQAVRKQLWDTANTVKEKFGRKLYESLLVGSLPDMNKMLDKEDFTMMKRAIFATQRQSFPPVCTHNMLDDSSDPILTTIRRIGLFNSSADRVKVIFHPEFLSSTSPLLPVDYEEFVRGCHLGVFPSYYEPWGYTPAECTVMGIPSISTNLSGFGCFMEEHIADPSAYGIYILDRRFRSLDDSCSQLTSFLYSFCQQSRRQRIIQRNRTERLSDLLDWKYLGRYYMSARHMALSKAFPEHFTYEPNEADAAQGYRYPRPASVPPSPSLSRHSSPHQSEDEEDPRNGPLEEDGERYDEDEEAAKDRRNIRAPEWPRRASCTSSTSGSKRNSVDTATSSSLSTPSEPLSPTSSLGEERN
chain 2: MTDQAFVTLTTNDAYAKGALVLGSSLKQHRTTRRLVVLATPQVSDSMRKVLETVFDEVIMVDVLDSGDSAHLTLMKRPELGVTLTKLHCWSLTQYSKCVFMDADTLVLANIDDLFDREELSAAPDPGWPDCFNSGVFVYQPSVETYNQLLHLASEQGSFDGGDQGILNTFFSSWATTDIRKHLPFIYNLSSISIFSYLPAFKVFGASAKVVHFLGRVKPWNYTYDPKTKSVKSEAHDPNMTHPEFLILWWNIFTTNVLPLLQQFGLVKDTCSYVNVLSDLVYTLAFSCGFCRKEDVSGAISHLSLGEIPAMAQPFVSSEERKERWEQGQADYMGADSFDNIKRKLDTYLQ
modifications: phosphorylated as purified
In the case of B2, the binding entry in test [2] and in test [3] was “no binding” in each case.

B3: full-length human GYG1^p.Y195F (nonglucosylated) (enzyme, UniProt P46976-1 1-350)
chain: MTDQAFVTLTTNDAYAKGALVLGSSLKQHRTTRRLVVLATPQVSDSMRKVLETVFDEVIMVDVLDSGDSAHLTLMKRPELGVTLTKLHCWSLTQYSKCVFMDADTLVLANIDDLFDREELSAAPDPGWPDCFNSGVFVYQPSVETYNQLLHLASEQGSFDGGDQGILNTFFSSWATTDIRKHLPFIYNLSSISIFSYLPAFKVFGASAKVVHFLGRVKPWNYTYDPKTKSVKSEAHDPNMTHPEFLILWWNIFTTNVLPLLQQFGLVKDTCSYVNVLSDLVYTLAFSCGFCRKEDVSGAISHLSLGEIPAMAQPFVSSEERKERWEQGQADYMGADSFDNIKRKLDTYLQ
Take B3: in test [1], the binding entry was “binds”.

B4: GYS1–GYG1^ΔCD complex (human GYS1 aa 1–737 with GYG1 aa 294–350) (complex, UniProt P13807 1-737; P46976-1 294-350)
chain 1: MPLNRTLSMSSLPGLEDWEDEFDLENAVLFEVAWEVANKVGGIYTVLQTKAKVTGDEWGDNYFLVGPYTEQGVRTQVELLEAPTPALKRTLDSMNSKGCKVYFGRWLIEGGPLVVLLDVGASAWALERWKGELWDTCNIGVPWYDREANDAVLFGFLTTWFLGEFLAQSEEKPHVVAHFHEWLAGVGLCLCRARRLPVATIFTTHATLLGRYLCAGAVDFYNNLENFNVDKEAGERQIYHRYCMERAAAHCAHVFTTVSQITAIEAQHLLKRKPDIVTPNGLNVKKFSAMHEFQNLHAQSKARIQEFVRGHFYGHLDFNLDKTLYFFIAGRYEFSNKGADVFLEALARLNYLLRVNGSEQTVVAFFIMPARTNNFNVETLKGQAVRKQLWDTANTVKEKFGRKLYESLLVGSLPDMNKMLDKEDFTMMKRAIFATQRQSFPPVCTHNMLDDSSDPILTTIRRIGLFNSSADRVKVIFHPEFLSSTSPLLPVDYEEFVRGCHLGVFPSYYEPWGYTPAECTVMGIPSISTNLSGFGCFMEEHIADPSAYGIYILDRRFRSLDDSCSQLTSFLYSFCQQSRRQRIIQRNRTERLSDLLDWKYLGRYYMSARHMALSKAFPEHFTYEPNEADAAQGYRYPRPASVPPSPSLSRHSSPHQSEDEEDPRNGPLEEDGERYDEDEEAAKDRRNIRAPEWPRRASCTSSTSGSKRNSVDTATSSSLSTPSEPLSPTSSLGEERN
chain 2: EDVSGAISHLSLGEIPAMAQPFVSSEERKERWEQGQADYMGADSFDNIKRKLDTYLQ
modifications: multiply phosphorylated
For the molecule B4, the binding entry in test [2] and in test [3] was “no binding” each time.

For the origin of these results see PMC9287172, “Molecular basis for the regulation of human glycogen synthase by phosphorylation and glucose-6-phosphate” (Nature Structural & Molecular Biology, 2022).
